This is one part of the list.
Tests used:
Assay in all cases: glycan array binding signal (z-score within array); higher = stronger binding
Conditions in all cases: glycan notation: IUPAC condensed, linker removed
[1] = target: GlcNAc(b1-4)GlcNAc(b1-4)GlcNAc(b1-4)GlcNAc(b1-4)GlcNAc(b1-4)GlcNAc
Summary of the method: (§1)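 The binding signal is a Z-score computed within each array and averaged over linkers. Arrays of the same protein sequence at different concentrations or buffers were also averaged together. Data originate from 3228 arrays in the Consortium for Functional Glycomics database, kept only where the protein sequence was available.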

[2] = target: GlcNAc(b1-4)[GlcNAc(b1-6)]GalNAc
Summary of the method: as §1

[3] = target: GlcNAc(b1-6)Gal(b1-4)GlcNAc
Summary of the method: as §1

GlcNAc(b1-6)GalNAc = target: GlcNAc(b1-6)GalNAc
Summary of the method: as §1

[4] = target: GlcNAc6S(b1-3)Gal(b1-4)GlcNAc
Summary of the method: as §1

Kdn(a2-3)Gal(b1-3)GalNAc = target: Kdn(a2-3)Gal(b1-3)GalNAc
Summary of the method: as §1

Kdn(a2-3)Gal(b1-3)GlcNAc = target: Kdn(a2-3)Gal(b1-3)GlcNAc
Summary of the method: as §1

Kdn(a2-3)Gal(b1-4)Glc = target: Kdn(a2-3)Gal(b1-4)Glc
Summary of the method: as §1

Kdn(a2-3)Gal(b1-4)GlcNAc = target: Kdn(a2-3)Gal(b1-4)GlcNAc
Summary of the method: as §1

[5] = target: Kdn(a2-3)Gal(b1-4)[Fuc(a1-3)]GlcNAc
Summary of the method: as §1

Kdn(a2-6)Gal(b1-4)GlcNAc = target: Kdn(a2-6)Gal(b1-4)GlcNAc
Summary of the method: as §1

[6] = target: Man(a1-2)Man(a1-2)Man(a1-3)Man
Summary of the method: as §1

[7] = target: Man(a1-2)Man(a1-2)Man(a1-6)[Man(a1-3)]Man
Summary of the method: as §1

Man(a1-2)Man(a1-3)Man = target: Man(a1-2)Man(a1-3)Man
Summary of the method: as §1

[8] = target: Man(a1-2)Man(a1-3)[Man(a1-2)Man(a1-6)]Man
Summary of the method: as §1

[9] = target: Man(a1-2)Man(a1-3)[Man(a1-2)Man(a1-6)]Man(a1-6)[Man(a1-2)Man(a1-2)Man(a1-3)]Man
Summary of the method: as §1

[10] = target: Man(a1-2)Man(a1-3)[Man(a1-2)Man(a1-6)]Man(a1-6)[Man(a1-2)Man(a1-2)Man(a1-3)]Man(b1-4)GlcNAc(b1-4)GlcNAc
Summary of the method: as §1

[11] = target: Man(a1-2)Man(a1-3)[Man(a1-6)]Man(a1-6)[Man(a1-2)Man(a1-3)]Man(b1-4)GlcNAc(b1-4)GlcNAc
Summary of the method: as §1

[12] = target: Man(a1-2)Man(a1-6)[Man(a1-3)]Man(a1-6)[Man(a1-2)Man(a1-2)Man(a1-3)]Man
Summary of the method: as §1

[13] = target: Man(a1-2)Man(a1-6)[Man(a1-3)]Man(a1-6)[Man(a1-2)Man(a1-2)Man(a1-3)]Man(b1-4)GlcNAc(b1-4)GlcNAc
Summary of the method: as §1

Man(a1-3)[Man(a1-6)]Man = target: Man(a1-3)[Man(a1-6)]Man
Summary of the method: as §1

[14] = target: Man(a1-3)[Man(a1-6)]Man(a1-6)[Man(a1-2)Man(a1-3)]Man(b1-4)GlcNAc(b1-4)GlcNAc
Summary of the method: as §1

[15] = target: Man(a1-3)[Man(a1-6)]Man(a1-6)[Man(a1-3)]Man
Summary of the method: as §1

[16] = target: Man(a1-3)[Man(a1-6)]Man(a1-6)[Man(a1-3)]Man(b1-4)GlcNAc(b1-4)GlcNAc
Summary of the method: as §1

[17] = target: Man(a1-3)[Man(a1-6)]Man(b1-4)GlcNAc(b1-4)GlcNAc
Summary of the method: as §1

[18] = target: Man(a1-3)[Man(a1-6)]Man(b1-4)GlcNAc(b1-4)[Fuc(a1-6)]GlcNAc
Summary of the method: as §1

Man(a1-6)Man = target: Man(a1-6)Man
Summary of the method: as §1

Man(b1-4)GlcNAc = target: Man(b1-4)GlcNAc
Summary of the method: as §1

MurNAc(b1-4)GlcNAc = target: MurNAc(b1-4)GlcNAc
Summary of the method: as §1

Neu5Ac(a2-3)Gal = target: Neu5Ac(a2-3)Gal
Summary of the method: as §1

[19] = target: Neu5Ac(a2-3)Gal(b1-3)GalNAc
Summary of the method: as §1

[20] = target: Neu5Ac(a2-3)Gal(b1-3)GalNAc(b1-3)Gal(a1-4)Gal(b1-4)Glc
Summary of the method: as §1

[21] = target: Neu5Ac(a2-3)Gal(b1-3)GalNAc(b1-4)[Neu5Ac(a2-3)]Gal(b1-4)Glc
Summary of the method: as §1

[22] = target: Neu5Ac(a2-3)Gal(b1-3)GalNAc(b1-4)[Neu5Ac(a2-8)Neu5Ac(a2-3)]Gal(b1-4)Glc
Summary of the method: as §1

[23] = target: Neu5Ac(a2-3)Gal(b1-3)GalNAc6S
Summary of the method: as §1

[24] = target: Neu5Ac(a2-3)Gal(b1-3)GlcNAc
Summary of the method: as §1

[25] = target: Neu5Ac(a2-3)Gal(b1-3)GlcNAc(b1-2)Man
Summary of the method: as §1

[26] = target: Neu5Ac(a2-3)Gal(b1-3)GlcNAc(b1-2)Man(a1-3)[GlcNAc(b1-4)][Neu5Ac(a2-3)Gal(b1-3)GlcNAc(b1-2)Man(a1-6)]Man(b1-4)GlcNAc(b1-4)GlcNAc
Summary of the method: as §1

[27] = target: Neu5Ac(a2-3)Gal(b1-3)GlcNAc(b1-2)Man(a1-3)[Neu5Ac(a2-3)Gal(b1-3)GlcNAc(b1-2)Man(a1-6)]Man(b1-4)GlcNAc(b1-4)GlcNAc
Summary of the method: as §1

[28] = target: Neu5Ac(a2-3)Gal(b1-3)GlcNAc(b1-3)Gal(b1-3)GlcNAc
Summary of the method: as §1

[29] = target: Neu5Ac(a2-3)Gal(b1-3)GlcNAc(b1-3)Gal(b1-4)GlcNAc
Summary of the method: as §1

[30] = target: Neu5Ac(a2-3)Gal(b1-3)GlcNAc(b1-3)GalNAc
Summary of the method: as §1

[31] = target: Neu5Ac(a2-3)Gal(b1-3)GlcNAc(b1-4)Gal(b1-4)Glc
Summary of the method: as §1

[32] = target: Neu5Ac(a2-3)Gal(b1-3)GlcNAc(b1-6)GalNAc
Summary of the method: as §1

[33] = target: Neu5Ac(a2-3)Gal(b1-3)GlcNAc6S
Summary of the method: as §1

B1: PX14343B-bfa-546-20-546 (Bacteroides fragilis) (protein)
chain: CDLERYPLTDLSEETFWNSESNAELALTSLYRGSLTDGVEYNPSDWWSYHGMIMMEHLSDNAFDRRGENNPFFKISSGNLTADNAFIKRYWETSYKRIGYCNRFLVGIQNSSESEKKTRMIAEARFLRATQYFYLASYFKNVPLVENVLTGEEANNVTKTSQADILKWCVTEFTAAAADLPRFSAIPAGEAGRACKQAALAFLGRTCMLQKDWKSGAKAFHDIMELGDNAINANYQELFYPSTGTSNKENIFYIQYLENYLGTGLPQHALSAKDGGWSLVNPAADLYESYEFKDGTPFSYDDPRYDPSNLGKDRDPRLDYTIYYNGAIFMGTEYKMSPDYSAAKKEKLDYTSEASRTGFMMRKYFEESTPINDVQSANGLTPVIRYAEVLLGYLECLVEDNQTITQGILDETINAVRGRASVNMPPVTEVTPAKLREIVRHERRIELAMEGIRYWDIMRWGIAHEVLSQKIWGAPYPGSTQYATTTKEVDPTGNYRWYVGKRAFRNPTDYTWPIPQSEQNINPNLRD
[1]
  glycan array binding signal (z-score): -0.12
[2]
  glycan array binding signal (z-score): -0.115
[3]
  glycan array binding signal (z-score): -0.12
GlcNAc(b1-6)GalNAc
  glycan array binding signal (z-score): -0.122
[4]
  glycan array binding signal (z-score): -0.123
Kdn(a2-3)Gal(b1-3)GalNAc
  glycan array binding signal (z-score): -0.129
Kdn(a2-3)Gal(b1-3)GlcNAc
  glycan array binding signal (z-score): -0.126
Kdn(a2-3)Gal(b1-4)Glc
  glycan array binding signal (z-score): -0.105
Kdn(a2-3)Gal(b1-4)GlcNAc
  glycan array binding signal (z-score): -0.123
[5]
  glycan array binding signal (z-score): -0.115
Kdn(a2-6)Gal(b1-4)GlcNAc
  glycan array binding signal (z-score): -0.121
[6]
  glycan array binding signal (z-score): -0.113
[7]
  glycan array binding signal (z-score): -0.124
Man(a1-2)Man(a1-3)Man
  glycan array binding signal (z-score): -0.133
[8]
  glycan array binding signal (z-score): -0.126
[9]
  glycan array binding signal (z-score): -0.099
[10]
  glycan array binding signal (z-score): -0.13
[11]
  glycan array binding signal (z-score): -0.129
[12]
  glycan array binding signal (z-score): -0.129
[13]
  glycan array binding signal (z-score): -0.126
Man(a1-3)[Man(a1-6)]Man
  glycan array binding signal (z-score): -0.122
[14]
  glycan array binding signal (z-score): -0.129
[15]
  glycan array binding signal (z-score): -0.112
[16]
  glycan array binding signal (z-score): -0.104
[17]
  glycan array binding signal (z-score): -0.116
[18]
  glycan array binding signal (z-score): -0.124
Man(a1-6)Man
  glycan array binding signal (z-score): -0.106
Man(b1-4)GlcNAc
  glycan array binding signal (z-score): -0.12
MurNAc(b1-4)GlcNAc
  glycan array binding signal (z-score): -0.122
Neu5Ac(a2-3)Gal
  glycan array binding signal (z-score): -0.111
[19]
  glycan array binding signal (z-score): -0.132
[20]
  glycan array binding signal (z-score): -0.124
[21]
  glycan array binding signal (z-score): -0.116
[22]
  glycan array binding signal (z-score): -0.114
[23]
  glycan array binding signal (z-score): -0.125
[24]
  glycan array binding signal (z-score): -0.123
[25]
  glycan array binding signal (z-score): -0.128
[26]
  glycan array binding signal (z-score): -0.126
[27]
  glycan array binding signal (z-score): -0.091
[28]
  glycan array binding signal (z-score): -0.129
[29]
  glycan array binding signal (z-score): -0.131
[30]
  glycan array binding signal (z-score): -0.114
[31]
  glycan array binding signal (z-score): -0.123
[32]
  glycan array binding signal (z-score): -0.123
[33]
  glycan array binding signal (z-score): -0.119
